Laboratory results taken from the antibiotic and cytotoxicity screens of Wong et al. (2023).
The other results are listed elsewhere or left out.

How the values were obtained:
HSkMC = human skeletal muscle cells; experiment: cytotoxicity call (relative viability < 0.9); conditions: 10 µM
HepG2 = experiment: cytotoxicity call (relative viability < 0.9); conditions: 10 µM
S. aureus RN4220 = experiment: growth inhibition call (relative growth <= 0.2); conditions: 50 µM

C[C@@H]1CN([C@H](C)CO)C(=O)c2cccc(NC(=O)c3ccc(-c4nccs4)cc3)c2O[C@H]1CN(C)Cc1ccc(C(=O)O)cc1
inactive: cytotoxicity call (HSkMC) | cytotoxicity call (HepG2) | growth inhibition call (S. aureus RN4220)

COc1ccc(S(=O)(=O)Nc2ccc3c(c2)CC(=O)N([C@H](C)CO)C[C@H](C)[C@H](CN(C)C(=O)Nc2c(C)noc2C)O3)cc1
inactive: cytotoxicity call (HSkMC) | cytotoxicity call (HepG2) | growth inhibition call (S. aureus RN4220)

C[C@H]1CN([C@@H](C)CO)C(=O)CCCn2cc(nn2)CO[C@H]1CN(C)S(=O)(=O)c1ccccc1C#N
inactive: cytotoxicity call (HSkMC) | cytotoxicity call (HepG2) | growth inhibition call (S. aureus RN4220)

COc1ccc(S(=O)(=O)Nc2cccc3c2O[C@H](CN(C)S(=O)(=O)c2c(C)noc2C)[C@H](C)CN([C@@H](C)CO)C3=O)cc1
inactive: cytotoxicity call (HSkMC) | cytotoxicity call (HepG2) | growth inhibition call (S. aureus RN4220)

Cc1ccc(S(=O)(=O)N(C)C[C@@H]2Oc3cc(Br)ccc3S(=O)(=O)N([C@H](C)CO)C[C@H]2C)cc1
inactive: cytotoxicity call (HSkMC) | cytotoxicity call (HepG2) | growth inhibition call (S. aureus RN4220)

C[C@H](CO)N1C[C@H](C)[C@@H](CN(C)C(=O)c2ccncc2)Oc2ncc(-c3ccc(C(=O)N(C)C)cc3)cc2C1=O
inactive: cytotoxicity call (HSkMC) | cytotoxicity call (HepG2) | growth inhibition call (S. aureus RN4220)

O=C(O)c1c(O)c2c([nH]c1=O)CCCC2
inactive: cytotoxicity call (HSkMC) | cytotoxicity call (HepG2) | growth inhibition call (S. aureus RN4220)

C[C@@H]1CN([C@@H](C)CO)C(=O)c2cccc(NS(C)(=O)=O)c2O[C@H]1CN(C)C(=O)NC1CCCCC1
inactive: cytotoxicity call (HSkMC) | cytotoxicity call (HepG2) | growth inhibition call (S. aureus RN4220)

COc1ccccc1-c1ccc2c(c1)O[C@H](CN(C)C(=O)c1ccncc1)[C@@H](C)CN([C@@H](C)CO)S2(=O)=O
inactive: cytotoxicity call (HSkMC) | cytotoxicity call (HepG2) | growth inhibition call (S. aureus RN4220)
